# Results from patent US9213031B2, “Use of Cbl as biomarker for identifying subject suitable for treatment with anti-c-Met antibody” (SAMSUNG ELECTRONICS CO., LTD., priority 2012, dated 2015).
# Key:
# c-Met [1] = target: T1, c-Met (Homo sapiens, UniProt P08581); assay: c-Met degradation degree (selection of affinity-matured antibodies); assay type: cell-based; details: among the four antibodies selected in Reference Example 1.7
# c-Met [2] = target: T1, c-Met; assay: Affinity for c-Met; assay type: binding; set-up: endogenous in cells; host or cells: NCI-H441, MKN45, EBC-1 (also Cbl-siRNA treated), HCC827 ER15; details: comparison among the four selected antibodies, or of libraries with wild-type
# From the text: The affinity for c-Met of each library was compared to that of the wildtype. Most libraries were lower in affinity for c-Met, compared to the wild-type. The affinity for c-Met was retained in some mutants.
# Akt = Akt phosphorylation (selection of affinity-matured antibodies); assay type: cell-based; details: among the four antibodies selected in Reference Example 1.7
# T1 sequence (P08581 25-1390): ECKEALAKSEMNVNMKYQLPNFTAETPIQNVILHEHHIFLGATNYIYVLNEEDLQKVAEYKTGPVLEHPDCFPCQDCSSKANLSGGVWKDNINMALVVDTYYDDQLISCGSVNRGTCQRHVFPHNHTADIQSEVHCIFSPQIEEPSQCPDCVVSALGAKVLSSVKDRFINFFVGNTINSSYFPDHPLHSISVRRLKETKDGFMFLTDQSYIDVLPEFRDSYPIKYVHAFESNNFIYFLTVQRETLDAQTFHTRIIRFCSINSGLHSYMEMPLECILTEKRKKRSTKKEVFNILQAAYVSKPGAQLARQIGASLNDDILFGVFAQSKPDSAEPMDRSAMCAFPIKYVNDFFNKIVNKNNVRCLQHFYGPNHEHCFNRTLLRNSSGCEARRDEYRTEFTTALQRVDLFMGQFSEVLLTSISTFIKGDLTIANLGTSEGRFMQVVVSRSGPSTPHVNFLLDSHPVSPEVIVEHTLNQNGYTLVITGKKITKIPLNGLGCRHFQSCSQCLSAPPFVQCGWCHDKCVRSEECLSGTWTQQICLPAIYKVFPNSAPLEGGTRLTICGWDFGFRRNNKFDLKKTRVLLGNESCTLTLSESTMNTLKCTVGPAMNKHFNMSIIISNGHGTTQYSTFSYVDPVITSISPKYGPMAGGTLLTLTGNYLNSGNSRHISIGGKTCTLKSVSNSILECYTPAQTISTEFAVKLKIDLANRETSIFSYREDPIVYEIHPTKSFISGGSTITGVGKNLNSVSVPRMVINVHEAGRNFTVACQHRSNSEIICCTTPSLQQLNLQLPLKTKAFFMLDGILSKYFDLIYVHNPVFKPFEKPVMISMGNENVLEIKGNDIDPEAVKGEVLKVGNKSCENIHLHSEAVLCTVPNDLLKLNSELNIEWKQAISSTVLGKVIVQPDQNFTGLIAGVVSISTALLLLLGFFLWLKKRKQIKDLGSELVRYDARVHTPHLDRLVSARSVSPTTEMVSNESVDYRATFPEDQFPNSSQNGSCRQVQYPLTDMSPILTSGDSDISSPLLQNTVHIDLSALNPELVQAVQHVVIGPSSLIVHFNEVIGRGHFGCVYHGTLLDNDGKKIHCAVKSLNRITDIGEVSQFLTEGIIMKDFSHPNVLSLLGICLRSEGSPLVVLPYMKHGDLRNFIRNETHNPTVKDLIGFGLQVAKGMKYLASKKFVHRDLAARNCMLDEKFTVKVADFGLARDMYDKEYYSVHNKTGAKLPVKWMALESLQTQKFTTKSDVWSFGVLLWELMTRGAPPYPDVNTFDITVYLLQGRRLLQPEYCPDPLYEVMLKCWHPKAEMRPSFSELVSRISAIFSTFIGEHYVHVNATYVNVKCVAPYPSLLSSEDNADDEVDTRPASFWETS
molecule,measurement,setting,value
"huAbF46-H4-A1: affinity-matured humanized anti-c-Met antibody, L3-1 origin (antibody) heavy: EVQLVESGGGLVQPGGSLRLSCAASGFTFTDYYMSWVRQAPGKGLEWLGFIRNKANGYTTEYSASVKGRFTISRDNSKNTLYLQMNSLRAEDTAVYYCARDNWFAYWGQGTLVTVSSASTKGPSVFPLAPSSKSTSGGTAALGCLVKDYFPEPVTVSWNSGALTSGVHTFPAVLQSSGLYSLSSVVTVPSSSLGTQTYICNVNHKPSNTKVDKKVEPKSCDCH[human IgG1 Fc not printed] light: DIQMTQSPSSLSASVGDRVTITCKSSQSLLASGNQNNYLAWHQQKPGKAPKMLIIWASTRVSGVPSRFSGSGSGTDFTLTISSLQPEDFATYYCQQSYSRPYTFGQGTKVEIKRTVAAPSVFIFPPSDEQLKSGTASVVCLLNNFYPREAKVQWKVDNALQSGNSQESVTEQDSKDSTYSLSSTLTLSKADYEKHKVYACEVTHQGLSSPVTKSFNRGEC",c-Met degradation degree,c-Met [1],lowest
same,affinity for c-Met,c-Met [2],highest
same,Akt phosphorylation,Akt,lowest
